Test results taken from the supplement of paper PMC7125110.
± gives the standard error. This sample is rich in variants without activity.

B1: glmS ribozyme (parent)
chain: AUAAAAGCGCCAGAACUACAGAAAUGUAGUUGACGAGGAGGAGGUUUAUCGAAUUUUCGGCGGAUGCCUCCAAA

Variants of: B1
Experiment: self-cleavage kobs at 2500 uM GlcN6P; higher = faster cleavage; RNA array
Conditions: with glucosamine-6-phosphate
Outline: (§1)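 kobs was derived by fitting per-tile medians to one- or two-exponential decays after normalising signals to baseline and to non-cleaving reference variants. Those signals came from barcoded ribozyme variants transcribed in situ by E. coli RNA polymerase on sequenced MiSeq chips, followed through a hybridised Cy3 probe at 37 °C and imaged over ~14 h. Glucosamine-6-phosphate (40 μM to 10 mM) in HEPES/KCl/Mg(OAc)2 buffer was flowed in. Weighted Michaelis–Menten fits across concentrations then gave kcat and KM.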

Variant	self-cleavage kobs at 2500 uM GlcN6P [s⁻¹]
AUAAAAGCGCCAGAACUACAGAAAUGUAGUUGACGAGGAGGAGGUUUAUCGAAUGUUGGGCGGAUGCCUCCAAA [U55G C58G]	4.5e-05 ± 8.6e-06
AUAAAAGCGCCAGAACUACAGAAAUGUAGUUGACGAGGAGGAGGUGUAUCGAAUUUUCGGUGGGUGCCUCCAAA [U46G C61U A64G]	< 1e-05
AUAAAAGCGCCAGAACUACAGAAAUGUAGUUGACGAGGAGGAGGUUUAUCGAAUUUUCGGAGGAAGCCUCCAAA [C61A U65A]	< 1e-05
AUAAAAGCGCCAGAACUACAGAAAUGUAGUUGACGAGGAGGAGGUUUAGCGAGUUUUCGGCGGAUGCCGCCAAA [U49G A53G U69G]	4.58e-05 ± 1.6e-05
AUAAAAGCGCCAGAACUACAGAAAUGUAGUUGACGAGGAGGAGGUUUACCGAAUUUUCGUCGGAUGGCUCCAAA [U49C G60U C67G]	< 1e-05
AUAAAAGCGCCAGAACUACAGAAAUGUAGUUGACGAGGAGGAGGUUUAUCUUAGCUUCGGCGGAUGCCUCCAAA [G51U A52U U54G U55C]	< 1e-05
AUAAAAGCGCCAGAACUACAGAAAUGUAGUUGACGAGGAGGAGGUUUAACGAAUUUUCGGCGGACGCCUCCAAA [U49A U65C]	< 1e-05
AUAAAAGCGCCAGAACUACAGAAAUGUAGUUGACGAGGAGGAGGUUUAUCGAAUUUUCGGCGCAUACCUCCAAA [G63C G66A]	< 1e-05
AUAAAAGCGCCAGAACUACAGAAAUGUAGUUGACGAGGAGGAGGUUUAUCGCAUUUCCGGCGGAUUCCUCCAAA [A52C U57C G66U]	< 1e-05
AUAAAAGCGCCAGAACUACAGAAAUGUAGUUGACGAGGAGGAAGUUGAUCGAAUUUUCGGCAGAUGCCUCCAAA [G43A U47G G62A]	< 1e-05
AUAAAAGCGCCAGAACUACAGAAAUGUAGUUGACGAGGAGGAGGUUUUUCGAAUUUUCGCCGGAGGCCUCCAAA [A48U G60C U65G]	< 1e-05
AUAAAAGCGCCAGAACUACAGAAAUGUAGUUGACGAGGAGGAGGAUCAUCGAAUUUUCGGCGUAUGCCUCCAAA [U45A U47C G63U]	< 1e-05
AUAAAAGCGCCAGAACUACAGAAAUGUAGUUGACGAGGAGGAGGUUUACCGAAUUUUCGGCGCAUGACUCCAAA [U49C G63C C67A]	< 1e-05
AUAAAAGCGCCAGAACUACAGAAAUGUAGUUGACGAGGAGGAGGUUUAUCCAAUUUUCGGCGGAUGGCUCUAAA [G51C C67G C71U]	< 1e-05
AUAAAAGCGCCAGAACUACAGAAAUGUAGUUGACGAGGAGGAGGUUUAUCGAAUGUUCGGCGGAUGCCUUGAAA [U55G C70U C71G]	7.27e-05 ± 1.7e-05
AUAAAAGCGCCAGAACUACAGAAAUGUAGUUGACGAGGAGGAGGUUGUUCGAAUUGUCGGCGGAUGCAUCCAAA [U47G A48U U56G C68A]	0.000324 ± 0.00012
AUAAAAGCGCCAGAACUACAGAAAUGUAGUUGACGAGGAGGAGGUUUAUCGAUUUUUGGGGGGAUGCCUCGAAA [A53U C58G C61G C71G]	0.000415 ± 0.00016
AUAAAAGCGCCAGAACUACAGAAAUGUAGUUGACGAGGAGGAUGUUUAUUGAAUUUUCGGCGGAUGCCUCUAAA [G43U C50U C71U]	< 1e-05
AUAAAAGCGCCAGAACUACAGAAAUGUAGUUGACGAGGAGGAGGUGUAUCAAAUUUUCGGCAGAUGCCUCCAAA [U46G G51A G62A]	< 1e-05
AUAAAAGCGCCAGAACUACAGAAAUGUAGUUGACGAGGAGGAGGUUUAUUGAAUUUUCGGCGGAUGCUUCCAAA [C50U C68U]	3e-05 ± 1.2e-05
AUAAAAGCGCCAGAACUACAGAAAUGUAGUUGACGAGGAGGAGGUUGAUCGAAUUUGCGGCGGAUGCCUCCAAA [U47G U57G]	6.68e-05 ± 2.2e-05
AUAAAAGCGCCAGAACUACAGAAAUGUAGUUGACGAGGAGGAGGUUUAUCGAAUUUUUGGGGGAUUCCUCCAAA [C58U C61G G66U]	6.41e-05 ± 2.3e-05
AUAAAAGCGCCAGAACUACAGAAAUGUAGUUGACGAGGAGGAGGUUAAUCGAAUUUUCGGGGGAUGCCUCUAAA [U47A C61G C71U]	< 1e-05
AUAAAAGCGCCAGAACUACAGAAAUGUAGUUGACGAGGAGGAUAUUUAUCGAAUUUUCGGCGGAAGCCUCCAAA [G43U G44A U65A]	< 1e-05
AUAAAAGCGCCAGAACUACAGAAAUGUAGUUGACGAGGAGGAUGUUUGUGGAAUUUUCGGCGGAUGUCUCCAAA [G43U A48G C50G C67U]	< 1e-05
AUAAAAGCGCCAGAACUACAGAAAUGUAGUUGACGAGGAGGUGGUUUAUCGAUUUUUCGGCGGAUGCCUCCAAA [A42U A53U]	8.5e-05 ± 1.5e-05
AUAAAAGCGCCAGAACUACAGAAAUGUAGUUGACGAGGAGGAGGUGUUUCGAAUUUUCGUCGGAUGCCUCCAAA [U46G A48U G60U]	< 1e-05

Variants of: B1
Experiment: self-cleavage kobs at 10000 uM GlcN6P; higher = faster cleavage; RNA array
Conditions: with glucosamine-6-phosphate
Outline: as §1

Variant	self-cleavage kobs at 10000 uM GlcN6P [s⁻¹]
AUAAAAGCGCCAGAACUACAGAAAUGUAGUUGACGAGGAGGAGGUUUAUCGAAUGUUGGGCGGAUGCCUCCAAA [U55G C58G]	9.57e-05 ± 1.1e-05
AUAAACGCGCCAGAACUACAGAAAUGUAGGUGACUAGGAGGAGGUUUAUCGAAUUUUCGGCGGAUGCCUCCAAA [A6C U30G G35U]	< 1e-05
AUAAAGGCGCUAGAACUACAGAAAUGUAGUUAACGAGGAGGAGAUUUAUCCAAUUUUUGUGGUAUGCCUCCAAA [A6G C11U G32A G44A G51C C58U G60U C61G G63U]	< 1e-05
AUAAAGGCGCCAGAACUACAGAAAUGUAGUUGACGAGGAGGAGGUUUAUCGAAUGUUCGGCGGAUGCCUUCAAA [A6G U55G C70U]	8.99e-05 ± 1.5e-05
AUAAAAGCGCCAGAACUACAGAAAUGUAGUUGACGAGGAGGAGGUUGUUCGAAUUGUCGGCGGAUGCAUCCAAA [U47G A48U U56G C68A]	4.62e-05 ± 1.6e-05
AUAAACACGCCAGAACUACAGAAAUGUAGUUGACUAAGAGGAGGUUUAUCGAAUUUUCGGCGGAUGCCUCCAAA [A6C G7A G35U G37A]	< 1e-05
AUAAAAGCGCCAGAACUACAGAAAUGUAGUUGACGAGGAGGAGGUUGAUCGAAUUUGCGGCGGAUGCCUCCAAA [U47G U57G]	5.61e-05 ± 1.2e-05
AUAAACGUGCCAGAACUACAGAAAUGUAGUUGACGAGCAGGACGUUUAUCGAAUUUUCGGCGGAUGCCUCCAAA [A6C C8U G38C G43C]	< 1e-05
AUAAACGCGCCAGAACUACAGAAAUGUAGUCGACAAGGAGGCGGUUUAUCGAAUUUUCGGCGGAUGCCUCCAAA [A6C U31C G35A A42C]	< 1e-05
AUAAAAGCGCCAGAACUACAGAAAUGUAGUUGACGAGGAGGUGGUUUAUCGAUUUUUCGGCGGAUGCCUCCAAA [A42U A53U]	9.14e-05 ± 8.2e-06
AUAAACGCGCCAGAACUAAAGAAAUGUAGUUGACGAGGAGGAGGUUUAUCCAAUUUUCGGCGGAUGCCUCCAAA [A6C C19A G51C]	< 1e-05
